Laboratory results reported in PubChem BioAssay AID1963576 (National Center for Advancing Translational Sciences (NCATS), 2024).
Screen size: about 46,000 compounds; about 60 (0.1%) were called active. About 3% were inconclusive and are not listed. Calls come from the whole dose curve; as a rule, active = well fitted inhibition curve with a large enough effect; inconclusive = small, poorly fitted or top-dose-only effect; inactive = no such curve, though single readings can be large or run the other way. The list shows a part of the results.

assay: Primary qHTS assay for Inhibitors of ovarian cancer metastasis using an organotypic tumor microenvironment (TME) model.; note: nearly all actives have a fitted effect of over 65% in size;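 for activity change, negative = inhibition: plate controls were DMSO wells for no effect and tomatine positive control wells for full effect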; settings: SKOV3ip1-GFP adhesion/invasion on 3D omental model, fluorescence; series mostly up to 45.8 µM; activity change, negative = inhibition: at the top concentration
Procedure, shortened: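 Adhesion/invasion was scored as fixed GFP-labeled SKOV3ip1 cell counts (488/509 nm), normalized to DMSO and tomatine controls. Cancer cells in serum-free medium, with four compound doses (0.36-46 umol/L), sat 2 hr at RT then 16 hr at 37 C on a 48 hr fibroblast/mesothelial/ECM culture.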

Activity change, negative = inhibition, inactive:
C[C@](N)(Cc1ccc(O)c(O)c1)C(=O)O -0.559%, CCN(CC)CCOC(=O)c1ccc(NC(=O)c2cc3cccc(OC)c3oc2=O)cc1 -2.18%, COc1ccc(Cl)cc1NC(=O)Cn1nnc(C(=O)NCc2ccc3c(c2)OCO3)c1N -4.22%, COC(=O)c1sccc1S(=O)(=O)N1CCN(c2ccc(C(C)=O)cc2)CC1 0.627%, Cn1c(=O)c2c(n3c4ccccc4nc13)NC(=O)CC2c1cccc(Cl)c1 (stereo not given) -3.87%, CC(=O)c1ccc(NC(=O)c2cc(C3CC3)nc3c2c(C)nn3-c2ccc(C)cc2)cc1 -32.6%, COc1ccc(S(=O)(=O)NCCc2sc(-c3ccccc3)nc2C)cc1F 13.7%, COc1ccc(NC(=O)CN2CCN(c3ccccc3F)CC2)c(OC)c1 3.98%, CCCOc1ccc(-c2cccc(NS(=O)(=O)c3ccc(CC)cc3)c2)nn1 1.39%, COc1cc2c(C(=O)N3CCN(c4cc(Cl)ccc4C)CC3)cn(CC(C)C)c(=O)c2cc1OC -9.23%, COc1ccc(S(=O)(=O)NCCc2sc(-c3cccc(F)c3)nc2C)cc1 -8.13%, O=C(Cn1cc(S(=O)(=O)N2CCN(c3ccccc3F)CC2)c2ccccc2c1=O)Nc1ccc(F)cc1Cl 37.8%, O=C(Nc1ccccc1F)C(Cc1ccccc1)N1Cc2ccccc2C1=O (stereo not given) -1.03%, CC(C)c1ccc(NC(=O)c2ccc(F)c(S(=O)(=O)N3CCN(c4ccccc4F)CC3)c2)cc1 -18.8%, COc1ccc(C(=O)N2CCN(C(=O)COc3ccc(C)cc3)CC2)cc1OC -9.81%, O=C(Nc1ccc(F)cc1F)N1CCc2c(sc3c2CCCC3)C1c1ccc(F)cc1 (stereo not given) 1.18%, CCc1ccc(S(=O)(=O)n2ccnc2)cc1 1.43%, COc1cc(NS(=O)(=O)c2ccc(NC(=O)c3ccc(OC)c(Br)c3)cc2)nc(OC)n1 -0.314%, CCCSCCCNC(=O)CN1C(=O)CCn2nc(-c3cn(C)c4ccccc34)cc21 6.91%, Cc1ccc(NC(=O)CSc2nccn2Cc2ccc3c(c2)OCO3)c(C)c1 7.81%, CCc1cccc(NC(=O)C(Cc2ccccc2)NS(=O)(=O)c2ccc3c(c2)c(=O)n(C)c(=O)n3C)c1 (stereo not given) -8.83%, COc1ccc(-c2nc3sc(CCNS(=O)(=O)c4c(C)cc(C)cc4C)c(C)n3n2)cc1 -10.8%, COc1ccc(OCc2nc(C#N)c(NCc3ccccc3Cl)o2)cc1 16.5%, COc1cccc(NC(=O)C2CCCN2S(=O)(=O)c2ccc3nc(-c4ccccc4)[nH]c3c2)c1 (stereo not given) 1.31%, N[C@H]1CN(c2c(F)cc3c(=O)c(C(=O)O)cn(C4C[C@@H]4F)c3c2Cl)CC12CC2 (stereo not given in full) -13%, COc1cccc(N2CCN(C(=O)c3c4c(nc5ccccc35)C(=O)N(C3CCCCC3)C4)CC2)c1 -14.8%, CCC(C(=O)Nc1cc(C)ccc1OC)n1nnc(C(=O)OC)c1C(=O)OC (stereo not given) 6.16%, CCOc1ccc(C2c3c(oc4cc(C)c(C)cc4c3=O)C(=O)N2c2ccccn2)cc1 (stereo not given) 2.3%, CCc1ccc(S(=O)(=O)N(C(C)=O)c2ccc3oc4c(c3c2)CCCC4)cc1 -4.8%, CCOc1ccc(C(=O)Nc2ccc3c(c2)N(C(C)=O)CCC3)cc1OCC -5.43%, COc1ccccc1N1CCN(S(=O)(=O)c2ccc(-n3cnnn3)cc2)CC1 -2.01%, CC(=O)Nc1cccc(NC(=O)Cc2csc(COc3cccc(C)c3)n2)c1 2.25%, COc1ccccc1CNC(=O)CCC(=O)N1Cc2ccccc2Oc2ncccc21 -6.22%, CN(C)c1ccc(CN(Cc2ccco2)C(=O)c2ccc(F)cc2)cc1 -7.88%, Cc1ccc(C)c(S(=O)(=O)n2nc(C)c(S(=O)(=O)N3CCC(C)CC3)c2C)c1 59.3%, Cc1ccc(-n2nc3c(N4CCC(C(=O)N(C)Cc5ccccc5)CC4)nnc(C)c3c2C)cc1 5.23%, CC(=O)N1c2ccc(S(=O)(=O)NCC3CCC(C(=O)Nc4cc(C)cc(C)c4)CC3)cc2CC1C (stereo not given) 6.27%, CC(C)(C)OC(=O)N1CCC(c2c(C(=O)N3CCOCC3)cnn2-c2ccccc2Cl)CC1 4.45%, COc1ccccc1CNC(=O)CCCn1c(=O)c2cccn2c2ccccc21 11.9%, COc1ccc2c(c1)c1c(c(=O)n(-c3ccc(OC)c(OC)c3)c(=O)n1Cc1ccc(C)cc1)n2C 51%, COc1ccc(Cc2nc3ccc(C(=O)NCc4cc(Br)ccc4OC)cc3o2)cc1 -7.39%, O=C(Cc1ccccc1)Nc1cc(-c2nc3cc(Cl)ccc3o2)ccc1Cl 82.8%, N#Cc1ccccc1S(=O)(=O)N1CCC(Oc2ccc(-n3cnnn3)cc2)CC1 4.25%, Fc1ccc(-c2noc3ncnc(N4CCCCC4)c23)cc1 -3.23%, COc1ccc(-c2nc(SCC(=O)Nc3cccc(C(C)=O)c3)n[nH]2)cc1 11.5%, Cc1ccccc1CNC(=O)C1CCCN(c2nnc(-n3c(C)ccc3C)s2)C1 (stereo not given) 13.1%

outcome, inactive:
Cc1ccc(Cl)cc1N1CCN(S(=O)(=O)c2ccc(-c3cnc(C4CC4)o3)cc2)CC1, CC(C)c1ccc(NC(=O)CN2C(=O)CCc3cc(S(=O)(=O)N4CCOCC4)ccc32)cc1, COCCn1c(=NC(=O)c2ccc3c(c2)OCCO3)sc2cc(NC(C)=O)ccc21, Cc1ccc(-c2nn3c(=O)cc(CN4CCN(C(=O)c5ccc(C(C)(C)C)cc5)CC4)nc3s2)cc1, CCC(C)NC(=O)CCC(=O)NNc1nc2ccccc2c2nc(C)nn12 (stereo not given), Cc1cc(C)c(NC(=O)CN(C)S(=O)(=O)c2ccc3c(c2)c(=O)n(C)c(=O)n3C)c(C)c1, COc1cc(Cl)c(C)cc1Nc1nnc(-n2nc(C)cc2C)c2ccccc12, COc1ccc(NS(=O)(=O)c2ccc3c(c2)NC(=O)CCS3)c(OC)c1, CCOC(=O)N1CCc2c(sc3c2c(=O)n(-c2ccc(CC)cc2)c(=O)n3Cc2cccc(OC)c2)C1, Cc1cc2c(cc1C)-n1c(-c3ccccc3)c3c(=O)n(C)c(=O)n(C)c3c1C(c1ccco1)N2 (stereo not given), COc1ccc(C2CC(=O)c3cnc4c(-c5ccccc5)c(C)nn4c3C2)c(OC)c1 (stereo not given), CCCCNC(=O)CCCn1c(=O)c2ccccc2n(Cc2ccc(Cl)cc2)c1=O, CCc1c(C)nc2nncn2c1Nc1cccc(C)c1, COc1ccccc1N(C)C(=O)Cn1c(=O)oc2cc(S(=O)(=O)N3CCCC3)ccc21
